Measurements: PubChem BioAssay AID624296 (National Center for Advancing Translational Sciences (NCATS), 2012)
Where “and” joins values, the source holds several entries; their conditions need not be identical. Equal entries are not always repeated. About 9,900 (2.8%) of roughly 350,000 compounds were called active. The inconclusive results got no clear call from the source; some entries with a clear call stand among them for comparison. The call rests on the fitted dose curve; in most records, active means well fitted activation curve with a large enough effect; inconclusive means small, poorly fitted or top-dose-only effect; inactive means no such curve, though single readings can be large or run the other way. Potencies of inconclusive entries are left out as doubtful fits.
Potency means the concentration at half of the fitted maximal effect; tags describe the fitted curve by direction and shape.

Test: A quantitative high throughput screen for small molecules that induce DNA re-replication in MCF 10a normal breast cells. Further: nearly all actives have a fitted effect of over 50% in size. On activity, positive = re-replication: % of control where 0% means no effect.
Settings: MCF 10A DNA re-replication, Hoechst nuclear intensity, 48 h; activity, positive = re-replication: at 46.1 µM (top of the series)
In the case of `Cc1ccc2[nH]c3c(c2c1)CN(C(=O)CN1CCN(c2cccc(C)c2C)CC1)CC3`, the Potency is reported as inconclusive [activator, partial curve, poor fit].
In the case of `CC(OC(=O)c1cnc(Cl)c(Cl)c1)C(=O)NCc1ccccc1` (configuration not stated), the “activity, positive = re-replication” value is reported as inactive: -7.53%.
For `CCCCN1C(=O)CC(Nc2ccc(CC)cc2)C1=O` (configuration not stated), the Potency was inconclusive [activator, partial curve, poor fit].
For `CCCCC(=O)Oc1c(S(=O)(=O)c2ccc(C)cc2)c(C)nn1C(C)(C)C`, the Potency was inconclusive [activator, single point].
For `CSc1ccc(CNc2ncc(-c3cccc([N+](=O)[O-])c3)n2C)cc1`, the “activity, positive = re-replication” value was inactive: -1.17%.
In the case of `N#Cc1ccc(NC2c3ccccc3CC2O)cc1` (configuration not stated), the “activity, positive = re-replication” value is reported as inactive: 3.29%.
With `C/C(NC(=O)c1ccccc1F)=C1\C(=O)C[C@@H]2[C@H]1C2(C)C` the Potency was inconclusive [activator, partial curve, poor fit].
For `COc1ccc(C(C(=O)NCC2CCCO2)N(C(=O)CNC(=O)c2ccco2)c2cc(C)cc(C)c2)cc1OC` (configuration not stated), the Potency was inconclusive [activator, single point].
For `COc1cc2c(cc1Cl)C(=O)C(F)(c1ccccc1)C(=O)N2` (configuration not stated), the Potency was inconclusive [activator, single point].
With `CC(=O)NC[C@@H]1CN(c2ccc(N3CCOCC3)c(F)c2)C(=O)O1` the “activity, positive = re-replication” value was inactive: -0.232%.
In the case of `Nc1c(N(CCC2=CCCCC2)C(=O)COc2ccc(F)cc2)c(=O)[nH]c(=O)n1Cc1ccccc1`, the Potency is reported as active: 16.4 µM.
For `N#CN(Cc1ccccc1)Cc1ccccc1`, the “activity, positive = re-replication” value was inactive: 13.5%.
For `COC1(c2ccccc2)NC(=S)NN=C1c1ccccc1` (configuration not stated), the Potency was inconclusive [activator, single point].
In the case of `CCCC1=Nc2cc(C(=O)NCCCN3CCN(C)CC3)ccc2Sc2ccccc21`, the Potency is reported as inconclusive [activator, partial curve, poor fit].
In the case of `c1ccc2nc(N3CCCC3)c(N3CCCCC3)nc2c1`, the Potency is reported as active: 20.6 µM.
In the case of `O=C(Nc1ccccc1)N1CCC(C(=O)N2CCCC(C(F)(F)F)C2)CC1` (configuration not stated), the “activity, positive = re-replication” value is reported as inactive: -3.93%.
In the case of `O=C(Nc1ccc(N2CCOCC2)c(Cl)c1)c1cc2ccccc2o1`, the Potency is reported as active: 13 µM.
For `COc1ccc(S[C@@H](CCN2CC[C@H](NC(=O)OCc3ccccc3)CCC2=O)c2ccccc2)cc1`, the Potency was inconclusive [activator, single point].
With `COc1c(O)ccc(/C=C(\C#N)c2nc3ccccc3[nH]2)c1[N+](=O)[O-]` the Potency was inconclusive [activator, partial curve, poor fit].
For `COc1ccc(C2CC(c3ccc4ccccc4c3)=NN2C(=O)COC(=O)C2CCC(=O)N2)cc1` (configuration not stated), the “activity, positive = re-replication” value was inactive: 0.307%.
For `c1ccc(N2CCN(c3ncnc4sc5c(c34)CCC5)CC2)cc1`, the Potency was inconclusive [activator, single point].
For `COC(C[C@@H](O)[C@H](C)[C@H](O)COCc1ccccc1)OC`, the Potency was inconclusive [activator, full curve, poor fit].
In the case of `O=C(CCOc1cccc(Br)c1)Nc1ccc(F)c(S(=O)(=O)N2CCOCC2)c1`, the Potency is reported as inconclusive [activator, partial curve, poor fit].
With `CC(C)CCC(CCN1CCOCC1)c1ccc2c(c1)OCO2` (configuration not stated) the Potency was inconclusive [activator, single point].
For `O=C(N/N=C/c1cc(Br)c(Br)o1)C(O)c1ccccc1` (configuration not stated), the Potency was inconclusive [activator, single point].
With `CN1CCN(c2nc(-c3cccnc3)nc3scc(-c4ccccc4)c23)CC1` the Potency was active: 18.4 µM.
In the case of `COc1ccc(C)cc1NC(=O)CN(C)S(=O)(=O)c1cnc[nH]1`, the Potency is reported as active: 23.1 µM.
For `CCCCNc1c(-c2ccc(-c3ccc(OC)cc3)c(OC)c2)nc2ccccn12`, the Potency was active: 20.6 µM.
In the case of `Cc1cc([N+](=O)[O-])cc(/C=N/n2c(C)nc3ccccc3c2=O)c1O`, the Potency is reported as active: 16.4 µM.
In the case of `O=C(COC(=O)/C=C/c1ccco1)Nc1ccccc1`, the “activity, positive = re-replication” value is reported as inactive: -1.4%.
With `S=C(c1ccc(-c2ccccc2Cl)o1)N1CCCCC1` the Potency was inconclusive [activator, full curve, poor fit].
For `O=C(Nc1ccc(N2CCOCC2)cc1)c1cccc(-n2cnnc2)c1`, the Potency was inconclusive [activator, full curve, poor fit].
In the case of `COc1cc2cc[n+](Cc3ccc([N+](=O)[O-])cc3)cc2cc1OC`, the “activity, positive = re-replication” value is reported as inactive: 11.7%.
In the case of `C=CCNc1nc(-c2ccc(O)c(C(N)=O)c2)cs1`, the Potency is reported as inconclusive [activator, single point].
For `Cc1cc(Nc2ccccc2)n(-c2cccc(Cl)c2)n1`, the “activity, positive = re-replication” value was inactive: 17.5%.
With `Cc1c(C=O)c(C=O)c(C)n1Cc1ccccc1` the Potency was active: 10 µM.
For `O=C(Nc1nc(-c2ccc(S(=O)(=O)N3CCCC3)cc2)cs1)c1ccco1`, the “activity, positive = re-replication” value was inactive: 12.9%.
In the case of `Cc1ccc(S(=O)(=O)N[C@@H](Cc2ccccc2)C(=O)CCl)cc1`, the Potency is reported as active: 9.2 µM and active: 2.31 µM.
In the case of `O=C1c2ccccc2NC(c2ccc(-c3cccc(Cl)c3)o2)N1O` (configuration not stated), the Potency is reported as inconclusive [activator, single point].
With `Cc1cccc(NC(=S)NCCc2c[nH]c3ccccc23)c1` the “activity, positive = re-replication” value was inactive: 1.27%.
With `CCN1CCN(C(=O)c2cc(COc3ccc(F)cc3F)on2)[C@@H](C)C1=O` the “activity, positive = re-replication” value was inactive: 26.8%.
In the case of `COc1ccc(CCNC(=O)c2cccc(S(=O)(=O)N3CCc4ccccc4C3)c2)cc1`, the Potency is reported as inconclusive [activator, single point].
With `O=C1c2ccccc2COc2ccc(O)cc21` the Potency was inconclusive [activator, partial curve, poor fit].
In the case of `COc1ccc(CNC(=O)Nc2cccc(C)c2)cc1`, the “activity, positive = re-replication” value is reported as inactive: -1.79%.
In the case of `CN1CCN(c2ccc(C(=O)c3ccccc3)cc2[N+](=O)[O-])CC1`, the Potency is reported as inconclusive [activator, partial curve].
For `COc1ccc(-c2c(=O)n(OC)c3ccccc3[n+]2[O-])cc1OC`, the Potency was inconclusive [activator, single point].
With `COc1ccc(NC(=O)c2csc(Cc3ccccc3)n2)cc1` the Potency was inconclusive [activator, partial curve].
With `COc1ccc(-n2nc(C(=O)NCC(=O)Nc3ccc(F)cc3)c3ccccc3c2=O)cc1` the Potency was inconclusive [activator, full curve].
With `CCN(CC)c1ncnc2scc(C3COc4ccccc4O3)c12` (configuration not stated) the Potency was inconclusive [activator, single point].
With `Cc1ccc(-c2nc3c(c(=O)c4ccccc4n3C)c(=O)n2-c2ccccc2)cc1` the “activity, positive = re-replication” value was inactive: 0.532%.
For `C#Cc1ccc(CN2CCN(Cc3ccsc3)C(CCO)C2)cc1` (configuration not stated), the Potency was inconclusive [activator, partial curve, poor fit].
In the case of `CN(C)c1ccccc1C(=O)c1ccccc1N(C)C`, the Potency is reported as active: 4.11 µM.
In the case of `CCN(c1ccccc1)S(=O)(=O)c1ccc(NCC2COc3ccccc3O2)nc1` (configuration not stated), the Potency is reported as inconclusive [activator, partial curve].
For `COc1cc(OC)c(OC)cc1CNC(=O)c1cc(=O)[nH]c2ccccc12`, the “activity, positive = re-replication” value was inactive: 3.61%.
In the case of `COc1ccc(C2NC(=O)NC(C)=C2C(=O)OCC2CCCCC2)cc1OC` (configuration not stated), the “activity, positive = re-replication” value is reported as inactive: -11.1%.
With `COc1ccc(OCc2cc(C(=O)NCCc3ccccc3)no2)c(Cl)c1` the Potency was active: 18.4 µM.
With `Cn1cc(/C=N/Nc2ccccc2)c2ccccc21` the Potency was inconclusive [activator, single point].
In the case of `NC(=O)c1ccc(NC(=O)Cc2cccs2)cc1`, the “activity, positive = re-replication” value is reported as inactive: 4.95%.
For `COC(=O)C1=CN(Cc2ccc(OC)cc2)C=C(C(=O)OC)C1c1ccc(O)c(OC)c1`, the Potency was inconclusive [activator, single point].
With `Cc1ccc2nc3cc([N+](=O)[O-])cc([N+](=O)[O-])c3cc2c1` the Potency was inconclusive [activator, full curve, poor fit].
For `C/C=C/c1cc(OC)c2c(c1)[C@H](C)[C@@H](c1ccc(O)c(OC)c1)O2`, the Potency was inconclusive [activator, single point].
For `CC1CN(c2nc(Nc3ccccc3F)nc(N)c2[N+](=O)[O-])CC(C)O1` (configuration not stated), the “activity, positive = re-replication” value was inactive: 5.13%.
For `Cc1cc(-c2ccc(C)c(S(=O)(=O)Nc3cccc(CN4CCCC4)c3)c2)on1`, the Potency was inconclusive [activator, single point].
With `O=c1c(Cl)c(O)c2cccc3c4ccccc4n1c23` the Potency was active: 23.1 µM.
For `Cc1cccc2cc(C#N)c(SCC(=O)NNC(=O)Cc3ccccc3)nc12`, the Potency was inconclusive [activator, partial curve, poor fit].
With `OCCNCc1cccc(OCc2ccc(Cl)cc2)c1` the “activity, positive = re-replication” value was inactive: 20.7%.
For `COc1ccccc1NC(=O)CSc1nncn1N`, the Potency was inconclusive [activator, single point].
With `Cc1ccc2c(SCC(=O)NCc3ccco3)nc(-c3ccc(F)cc3)nc2c1` the Potency was inconclusive [activator, partial curve, poor fit].
For `COc1ccc(OC)c(CN2CCCC(CO)C2)c1` (configuration not stated), the Potency was inconclusive [activator, partial curve, poor fit].
With `COc1ccc(N(C(=O)c2snc(C(N)=O)c2N)C(C(=O)NC2CCCC2)c2ccco2)cc1` (configuration not stated) the Potency was inconclusive [activator, partial curve, poor fit].
In the case of `CS(=O)(=O)c1[nH]nc(-c2ccccc2Cl)c1C#N`, the “activity, positive = re-replication” value is reported as inactive: 4.51%.
In the case of `COc1ccc(NS(=O)(=O)c2cc(NC(=O)c3ccc(=O)[nH]n3)ccc2N2CCOCC2)cc1`, the Potency is reported as inconclusive [activator, partial curve, poor fit].
